Reference: PubChem BioAssay AID493208 (National Center for Advancing Translational Sciences (NCATS), 2011)
The campaign covered roughly 44,000 compounds. About 340 (0.77%) were called active. About 5% were inconclusive and are not listed. Calls follow the shape of the dose curve; as a rule, active = well fitted inhibition curve with a large enough effect; inconclusive = small, poorly fitted or top-dose-only effect; inactive = flat fitted curve, though single readings scatter. The list shows a part of the results.

experiment: Acumen qHTS Assay for Inhibitors of the mTORC1 Signaling Pathway in MEF (Tsc2-/-, p53-/-) Cells: Sytravon; conditions: phospho-rpS6 immunofluorescence/PI, 24 h; series mostly up to 38.3 µM; activity change, negative = inhibition: at the top concentration; also: nearly all actives have a fitted effect of over 50% in size;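 as to activity change, negative = inhibition: plate controls were DMSO for no effect and rapamycin for full effect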
How it was run: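 Read-out: phospho-S6 Alexa-488 intensity over PI intensity per well, scored as % active cells using thresholds from rapamycin (7.5 nM) and DMSO controls. Tsc2-/-, p53-/- MEFs exposed to compound for 24 h; PI cell count recorded as viability.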
Potency is read from the fitted curve at half-maximal effect.

| SMILES | activity change, negative = inhibition | Potency |
| --- | --- | --- |
| Cc1ccc2oc(-c3cc(NC(=O)c4oc5ccccc5c4C)ccc3Cl)nc2c1 | inactive: -5.15% | – |
| Cc1ccc2oc(=O)n(Cc3ccccc3Cl)c2c1 | inactive: 0.0857% | – |
| CCc1ccc(OCC(=O)Nc2cc(-c3nc4cc(C)ccc4o3)ccc2C)cc1 | inactive: 0.616% | – |
| CN(Cc1ccc(F)cc1)S(=O)(=O)c1nnc(NC(=O)c2ccccc2)s1 | inactive: -3.22% | – |
| CCCNC(=O)C1CCC(CNS(=O)(=O)c2ccc3c(c2)CC(C)N3C(C)=O)CC1 (centres undefined) | inactive: -14.1% | – |
| Cc1ccc(NC(=O)c2oc3ccccc3c2NC(=O)C23CC4CC(CC(C4)C2)C3)cc1 | inactive: -7.53% | – |
| CCOc1ccc(Nc2ncnc3scc(-c4ccc(OC)cc4)c23)cc1 | inactive: 0% | – |
| Cc1ccc(C(=O)NCc2ccccc2)cc1NC(=O)c1nsc2ccccc12 | inactive: 9.15% | – |
| CCOC(=O)c1c(C)[nH]c(C)c1S(=O)(=O)N1CCC(C(=O)Nc2ccc(C)c(N(C)C)c2)CC1 | inactive: 5.78% | – |
| CC(C)(C)OC(=O)N1CCC(c2c(C(=O)N3CCN(Cc4ccccc4)CC3)cnn2-c2ccc(Cl)cc2)CC1 | inactive: 3.28% | – |
| Cn1cc(C(=O)NCCc2ccccc2)c(=O)c2cc(S(=O)(=O)N3CCCCC3)ccc21 | inactive: 5.11% | – |
| CCc1ccc(N2C(=O)CN(S(=O)(=O)CC)CC2(C)C(=O)NC2CCCCC2)cc1 (centres undefined) | inactive: 0.438% | – |
| Cc1cc(-c2ccc(C)c(S(=O)(=O)NCc3cccs3)c2)on1 | inactive: -15.5% | – |
| O=C(CNC(=O)c1ccccc1)OCc1cc(=O)n2nc(C3CC3)sc2n1 | inactive: 3.37% | – |
| Cc1ccc(Nc2c(-c3ccc(C)o3)nc3cccc(C)n23)cc1 | inactive: -5.3% | – |
| O=c1c2oc3ccccc3c2n(Cc2ccc(Cl)cc2)c(=O)n1Cc1ccccc1 | inactive: -0.619% | – |
| CCC1CCCCN1C(=O)CCS(=O)(=O)c1cc2c(cc1C)NC(=O)CO2 (centres undefined) | inactive: 8.04% | – |
| Cc1cc(C)cc(-n2c(SCC(=O)N3CCCCCC3)nc3c([nH]c4ccccc43)c2=O)c1 | inactive: 0.107% | – |
| CCS(=O)(=O)c1ncc(Cl)c(C(=O)NCc2ccccc2)n1 | – | active: 2610 nM |
| O=C(Nc1cc(F)ccc1F)c1ccc(CN2CC(=O)N3CCCCC3C2=O)cc1 (centres undefined) | inactive: 7.95% | – |
| COc1ccc(-c2cc(=O)oc3c4c(ccc23)OCN(Cc2ccccc2)C4)cc1 | inactive: 1.76% | – |
| CC(=O)Nc1c(C)nn(-c2ccccc2)c1N1CCC(C(=O)NCc2ccc(F)cc2)CC1 | inactive: 0.628% | – |
| C=C(C)Cn1c(SCC(=O)c2ccccc2)nc2sc3c(c2c1=O)CCCC3 | inactive: 1.94% | – |
| COc1cc(Cl)c(C)cc1NC(=O)Cn1c(C)c2cnn(-c3ccccc3)c(=O)c2c1C | inactive: 1.34% | – |
| CC(=O)c1ccc(NC(=O)CSc2nnc(N)s2)cc1 | inactive: -0.506% | – |

| SMILES | activity change, negative = inhibition | Potency |
| --- | --- | --- |
| O=C(Nc1cccc(C(F)(F)F)c1)C1CCN(S(=O)(=O)c2cccs2)CC1 | inactive: -0.33% | – |
| CCn1cc2nc(SCc3cccc(C(F)(F)F)c3)n(Cc3ccc(OC)cc3)c(=O)c2n1 | inactive: 0% | – |
| COc1cc2c(cc1NC(=O)COc1ccc(Cl)cc1)oc1ccccc12 | inactive: -3.71% | – |
| COc1ccc(NC(=O)Cn2c(=O)n(Cc3ccco3)c(=O)c3oc4ccccc4c32)cc1Cl | inactive: -6.61% | – |
| COc1ccc(-n2ncc3c2ncn2nc(Cc4ccccc4)nc32)cc1 | inactive: 3.02% | – |
| Cc1ccccc1CNCc1c(C(=O)O)c(C)n(Cc2ccc(F)cc2Cl)c1C | inactive: 1.02% | – |
| CC(=O)Nc1ccc(C(=O)Nc2ccc3c(c2)N(C2CCCC2)C(=O)c2ccccc2S3)cc1 | inactive: -7.42% | – |
| Clc1ccccc1CN1CCc2nc(N3CCN(c4ncccn4)CC3)ncc2C1 | inactive: 0% | – |
| Cc1nnc(N2CCC(C(=O)NC(C)C)CC2)c2nn(-c3ccccc3)c(C)c12 | inactive: -7.01% | – |
| Cc1ccc(-c2noc(-c3nnn(-c4ccc(Br)cc4F)c3C)n2)cc1 | inactive: -8.02% | – |
| O=C(Nc1ccc(F)cc1)c1cc2cc3ccc(Cl)cc3nc2o1 | inactive: -10.8% | – |
| COc1ccc(OC)c(CCNC(=O)Cn2nc(C)n3c(cc4sccc43)c2=O)c1 | inactive: 1.53% | – |
| COc1ccc(-n2ncc(C(=O)NCCN3CCOCC3)c2C2CCN(C(=O)OC(C)(C)C)CC2)cc1 | inactive: 0.561% | – |
| CCc1c(C)sc2c1CCN(C(=O)Nc1cc(C)ccc1C)C2c1ccc(OC)cc1 (centres undefined) | inactive: 0% | – |
| Cc1nc(-c2cccc(S(=O)(=O)N3CCC(C(=O)NCc4ccccc4Cl)CC3)c2)no1 | inactive: -4.62% | – |
| Cc1cc(C)cc(NC(=O)c2cc(S(=O)(=O)N3CCCC3)ccc2F)c1 | inactive: 1.83% | – |
| Cn1nc(-c2ccccc2F)c2cc(C(=O)NCc3cccc(Cl)c3)sc21 | inactive: 2.45% | – |
| Cc1ccc(C)c(NC(=O)c2nnn(Cc3ccc(F)cc3Cl)c2N)c1 | inactive: -29.4% | – |
| Cc1cccc(CSc2nnc(CCCCCN)o2)c1 | inactive: -28.1% | – |
| CCC1Oc2ccccc2N(CC(=O)NCCc2ccc(OC)c(OC)c2)C1=O (centres undefined) | inactive: -3.62% | – |
| O=C(NCCc1ccccc1)c1cnc2sc(N3CCCCC3)nn2c1=O | inactive: -8.49% | – |
| O=c1oc2ccc3ccccc3c2cc1-c1nnc(Nc2cccc(C(F)(F)F)c2)s1 | inactive: 4.02% | – |
| COc1cc(OC)c(NC(=O)N2CCc3cc(S(=O)(=O)N4CCC(C)CC4)ccc32)cc1Cl | inactive: -0.22% | – |
| O=C(c1cc2c(s1)-c1ccccc1OC2)N1CCN(c2ccc(F)cc2)CC1 | inactive: 1.58% | – |
